In publication PMC12040169 (PLOS Biology, 2025):
The list shows a part of the results.

Each compound was assayed on T1, C. trachomatis L2/434/Bu expressing GFP (CTL2-GFP). Settings: total inclusion area; 28.5 h, 10 µM; inhibitor.
T1 construct: L2/434/Bu GFP intracellular growth in HeLa cells
Parameters: species or system HeLa; C. trachomatis total inclusion area by high-content imaging, normalised to DMSO
Summary of the method: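 Imaging read-out: GFP inclusions and Hoechst nuclei captured by high-content imaging after fixation. Inclusion area/number = chlamydial growth; nuclei count = host cell viability. MIC calculated per earlier method.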

| Compound | % of control remaining |
| --- | --- |
| Cc1nc(C2CN(Cc3cc4ccccc4nc3Cl)CCO2)no1 (centres unmarked) [CBK305381] | 82.1709 |
| O=C(NC(=S)Nn1cnnc1)c1ccccc1 [CBK028188] | 84.1574 |
| O=C(/C(=C\c1ccc([N+](=O)[O-])cc1)n1cncn1)c1ccc(Cl)cc1Cl [CBK262145] | 85.2111 |
| Cc1cc(C)nc(Nc2cccc(C3CCCN3C(=O)CCOc3ccccc3C)n2)n1 (centres unmarked) [CBK286496] | 109.692 |
| CCOc1ccc(NC(=O)NC(CC)c2cnn(C)c2)cc1Cl (centres unmarked) [CBK307262] | 58.3282 |
| Cc1cnc(CNC(=O)N2CCN(Cc3ccccc3)CC2)cn1 [CBK155627] | 72.4477 |
| Cc1ccc(OCC(=O)NC(C)c2ccc(F)cc2F)c([N+](=O)[O-])n1 (centres unmarked) [CBK295662] | 58.4391 |
| O=C(Nc1ccc2nc3n(c(=O)c2c1)CCCC3)C1CCCCC1 [CBK304383] | 14.586 |
| Cc1ccc(S(=O)(=O)NCCCO)cc1C(=O)O [CBK266610] | 116.982 |
| O=C(c1cc(C2CCCN(Cc3ccccc3)C2)no1)N1CCCC1 (centres unmarked) [CBK283395] | 98.1349 |
| Cc1cccn2c(=O)cc(CN3CCC(CNc4ccccn4)C3)nc12 (centres unmarked) [CBK306123] | 74.8012 |
| O=C(Cn1c(-c2cncs2)nc2ccccc21)NCc1ccccc1 [CBK264705] | 97.8962 |
| CC(=O)N1CCC2(CC1)NC(=O)N(c1ccc(C(=O)O)cc1)N2 [CBK286758] | 49.8844 |
| c1ccc(COCCCN2CCC3(CC2)OCCc2c3[nH]c3ccccc23)cc1 [CBK040208] | 101.998 |
| O=C(Cc1cccc(F)c1)N1CCC(c2cc3ncccc3[nH]2)CC1 [CBK283374] | 83.2066 |
| O=C(c1ccccc1O)N1CCN(Cc2cc(=O)n3ccsc3n2)CC1 [CBK306096] | 57.7996 |
| COc1ccc(Cc2n[nH]c(=S)n2-c2cccnc2)cc1 [CBK288373] | 55.2264 |
| Nc1nc(Cl)c2ncn([C@H]3C[C@@H](O)[C@@H](CO)O3)c2n1 [CBK201193] | 112.932 |
| O=C(O)C1C(C(=O)O)C1C(=O)O (centres unmarked) [CBK230432] | 92.8479 |
| O=c1c2cccnc2ncn1CC(O)COc1ccc(-c2ccccc2)cc1 (centres unmarked) [CBK296690] | 123.379 |
| CCC(C)c1ccc(NC(=O)CSc2nnnn2C)cc1 (centres unmarked) [CBK058085] | 50.9123 |

| Compound | % of control remaining |
| --- | --- |
| CCS(=O)(=O)NC1CCN(c2nc(C(F)(F)F)nc3[nH]cnc23)CC1 [CBK304588] | 68.5716 |
| FC(F)(F)c1ccc(SCc2cccs2)nc1 [CBK103711] | 88.7319 |
| CC(C)(C)OC(=O)NCCc1ccc(Nc2cc(-c3ccc4c(c3)OCO4)ncn2)cc1 [CBK090957] | 110.435 |
| CCN(CC)CCN(CC(=O)Nc1c(C)cccc1Cl)Cc1ccccc1 [CBK023143] | 69.1239 |
| Cc1cc(C)c2cc(CN(CCO)Cc3nnnn3CC3CCCO3)c(=O)[nH]c2c1 (centres unmarked) [CBK108944] | 88.2032 |
| CCCCCOc1nccnc1N1CCNCC1 [CBK001901G] | 96.8969 |
| Cc1ccc(C(NC(=O)CC(C)C)c2ccc3cccnc3c2O)cc1 (centres unmarked) [CBK293943] | 95.4397 |
| O=C(Cn1c2ccccc2n2ncnc12)c1ccc(-c2ccccc2)cc1 [CBK263097] | 80.1321 |
| C=CCn1c(SCCC(=O)O)nc2c1c(=O)n(C)c(=O)n2C [CBK269573] | 102.007 |
| O=S1(=O)N=CNc2ccccc21 [CBK028171] | 89.7358 |
| O=c1c2c3nc4ccccc4nc3n(CCc3ccccc3)c2ncn1C1CCCC1 [CBK269464] | 73.2491 |
| O=C(Nc1ccc(F)c(Cl)c1)c1cccnc1Sc1cccs1 [CBK057512] | 84.1362 |
| NC(=O)c1ccccc1NC(=O)c1ccc2ccccc2c1 [CBK261171] | 94.9878 |
| Cc1nc2ccccc2nc1COC(=O)c1ccc(S(=O)(=O)N2CCCCC2C)cc1 (centres unmarked) [CBK297932] | 91.4043 |
| Cn1cc(C(=O)N2CCc3nc(-c4ccccc4F)sc3C2)cn1 [CBK281914] | 97.9628 |
| CC(=O)Nc1cccc(NC(=O)CSc2ncnc3c2nnn3C)c1 [CBK287829] | 110.751 |
| COc1ccc(Nc2nccc3c2nnn3C)cc1 [CBK287879] | 100.049 |
| O=C(O)c1cccc(Nc2nc3ccccc3nc2NS(=O)(=O)c2ccc(Br)cc2)c1 [CBK296113] | 109.173 |
| CN(CC(=O)OCC(=O)c1ccccc1)S(=O)(=O)c1ccc(Cl)cc1 [CBK264363] | 94.4692 |
| CC1c2ccsc2CCN1C(=O)COc1ccc(Br)cc1 (centres unmarked) [CBK304999] | 24.4244 |
